34 compounds from the supplement of paper PMC5919970 can be followed below.

SMILES strings stand for the structures. Structures can show the parent of a compound that is named as a salt. Over roughly 2,000 compounds, “fractional viability relative to vehicle” has its median near 0.92; the lowest 2% begin near 0.11. The list shows a part of the results.

In this test the test system is TYKNU. Kind of test: fractional viability relative to vehicle; TYKNU is a high-grade serous ovarian cancer line; higher = less growth inhibition. Particulars: 72 h, genotype: OPA1 knockout (sgOPA1 #2). Summed up:
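TYKNU control cells or lentiCRISPRv2 knockout derivatives were plated at 500 cells per well in duplicate into drug-stamped 384-well plates holding a ~2100-compound library at 2 or 10 μM. Culture was in RPMI 1640 with 10% FBS at 37 °C in 5% CO2, with 72 h of drug treatment. Viability was measured by Cell Titer Glo luminescence, and the averaged duplicate treatment wells were normalised to duplicate control wells at the same plate position.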

Take `COc1ccccc1N1CCN(CC(O)COc2cccc3ccccc23)CC1` (stereo not drawn) [Naftopidil]: the fractional viability came out at 0.964 (2uM) and 0.76 (10uM).

Take `COc1ccccc1N1CCN(CC(O)COc2cccc3ccccc23)CC1` (stereo not drawn) [Naftopidil DiHCl]: the fractional viability by setting is: (2uM) 1.09; (10uM) 0.849.

As for `O=C(O)CC[C@H]1CC[C@@](c2cc(F)ccc2F)(S(=O)(=O)c2ccc(Cl)cc2)CC1`, the fractional viability worked out at 1.07 (2uM) and 0.905 (10uM).

Regarding `C/C=C1\NC(=O)[C@H]2CSSCC/C=C/[C@H](CC(=O)N[C@H](C(C)C)C(=O)N2)OC(=O)[C@H](C(C)C)NC1=O` [Romidepsin (FK228, Depsipeptide)], the fractional viability (2uM) is 0.0685 and the fractional viability (10uM) was found to be 0.0492.

Take `COc1cc(OC)c(C(=O)CCCN2CCCC2)c(OC)c1` [Buflomedil HCl]: the fractional viability was 0.851 (2uM) and 0.685 (10uM).

Consider `N#CC(c1ccc(Cl)cc1)c1c(Cl)cc(-n2ncc(=O)[nH]c2=O)cc1Cl` (stereo not drawn) [Diclazuril], for which the fractional viability is 1.12 (2uM) and 0.998 (10uM).

With `CCOc1ccc(Cc2cc([C@@H]3O[C@H](SC)[C@@H](O)[C@H](O)[C@H]3O)ccc2Cl)cc1` [Sotagliflozin (LX4211)], the fractional viability runs as follows: (2uM) 0.747; (10uM) 0.755.

Take `CC(C)(C)C(=O)OCOP(=O)(COCCn1cnc2c(N)ncnc21)OCOC(=O)C(C)(C)C` [Adefovir Dipivoxil]: the fractional viability was found to be 0.824 (2uM) and 0.652 (10uM).

Consider `COc1ccc(CCNCc2ccc(OCc3ccc(Cl)nc3)c(OC)c2)cc1OC`, for which the fractional viability is, setting by setting: (2uM) 1.04; (10uM) 0.914.

Turning to `CS(=O)(=O)CCNCc1ccc(-c2ccc3ncnc(Nc4ccc(OCc5cccc(F)c5)c(Cl)c4)c3c2)o1`, the fractional viability was determined as 1.05 (2uM) and 0.369 (10uM).

On to `C=CC(=O)Nc1cccc(Nc2nc(Nc3ccc(N4CCN(C(C)=O)CC4)cc3OC)ncc2C(F)(F)F)c1`, for which the fractional viability reads like this: (2uM) 0.781; (10uM) 0.431.

As to `Nc1c(Br)cc(Br)cc1CN[C@H]1CC[C@H](O)CC1` [Ambroxol HCl], the fractional viability (2uM) was 1.05 and the fractional viability (10uM) stood at 0.837.

Regarding `Cn1ccnc1S` [Methimazole], the fractional viability was 0.98 (2uM) and 1.07 (10uM).

In the case of `CC(C)(Sc1cc(C(C)(C)C)c(O)c(C(C)(C)C)c1)Sc1cc(C(C)(C)C)c(O)c(C(C)(C)C)c1` [Probucol], the fractional viability (2uM) came out at 0.974 and the fractional viability (10uM) was determined as 1.01.

As to `CCCCCCCc1ccc(CCc2cccc(O)c2C(=O)O)cc1`, the fractional viability reads like this: (2uM) 0.96; (10uM) 0.73.

As to `Cc1noc(C)c1-c1ccc(-c2cc(C(N)=O)c(NC(N)=O)s2)c(O[C@H]2CCNC2)c1`, the fractional viability runs as follows: (2uM) 0.847; (10uM) 0.778.

Turning to `Cc1ccc([N+](=O)[O-])cc1S(=O)(=O)N(C)/N=C/c1cnc2ccc(Br)cn12`, the fractional viability is, setting by setting: (2uM) 0.428; (10uM) 0.422.

In turn, `COc1ccc(-c2ccc3c(N4CCOCC4)nc(N4C[C@@H](C)O[C@@H](C)C4)nc3n2)cc1CO` gave a fractional viability (2uM) of 0.58 and a fractional viability (10uM) of 0.32.

For `C/C(=C\c1ccc(C(=O)O)cc1)c1ccc2c(c1)C(C)(C)CCC2(C)C` [TTNPB (Arotinoid Acid)], the fractional viability is, setting by setting: (2uM) 0.844; (10uM) 0.781.

`COc1cc(OC)c(/C=C/S(=O)(=O)Cc2ccc(OC)c(NCC(=O)O)c2)c(OC)c1` returned a fractional viability (2uM) of 0.428 and a fractional viability (10uM) of 0.365.

On to `CN(C)[C@@H]1C(O)=C(C(N)=O)C(=O)[C@@]2(O)C(O)=C3C(=O)c4c(O)cccc4[C@@](C)(O)[C@H]3[C@H](O)[C@@H]12` [Oxytetracycline (Terramycin)], for which the fractional viability is, setting by setting: (2uM) 1.06; (10uM) 1.06.

As to `CN(C)[C@@H]1C(O)=C(C(N)=O)C(=O)[C@@]2(O)C(O)=C3C(=O)c4c(O)cccc4[C@@](C)(O)[C@H]3[C@H](O)[C@@H]12` [Oxytetracycline Dihydrate], the fractional viability stood at 1.14 (2uM) and 1.14 (10uM).

In the case of `OC(CN1CCN(c2cccc(Cl)c2)CC1)C(c1ccccc1)c1ccccc1` (stereo not drawn), the fractional viability stood at 1.1 (2uM) and 0.947 (10uM).

Regarding `CC/C(=C(/CC)c1ccc(O)cc1)c1ccc(O)cc1` [Diethylstilbestrol], the fractional viability came to 1.02 (2uM) and 0.85 (10uM).

`CC1=C(/C=C/C(C)=C/C=C/C(C)=C\C(=O)O)C(C)(C)CCC1` [Isotretinoin]: the fractional viability is, setting by setting: (2uM) 0.872; (10uM) 0.747.

Regarding `NC(N)=Nc1nc(CSCC/C(N)=N/S(N)(=O)=O)cs1` [Famotidine], the fractional viability reads like this: (2uM) 0.978; (10uM) 0.858.

Take `Nc1cc(F)ccc1NC(=O)/C=C/c1cnn(C/C=C/c2ccccc2)c1`: the fractional viability reads like this: (2uM) 0.912; (10uM) 0.802.

For `CCOc1ccc2nc3cc(N)ccc3c(N)c2c1` [Ethacridine lactate monohydrate], the fractional viability reads like this: (2uM) 0.729; (10uM) 0.356.

For the compound `CN(Cc1cnc2nc(N)nc(N)c2n1)c1ccc(C(=O)N[C@@H](CCC(=O)O)C(=O)O)cc1` [Methotrexate], the fractional viability runs as follows: (2uM) 0.66; (10uM) 0.651.

As for `COc1cc(C(C)=O)ccc1O` [Apocynin], the fractional viability reads like this: (2uM) 1.01; (10uM) 0.873.

Turning to `O=C(CCCCCCC(=O)Nc1ccc([C@H]2O[C@@H](CSc3nc(-c4ccccc4)c(-c4ccccc4)o3)C[C@@H](c3ccc(CO)cc3)O2)cc1)NO` [Tubacin], the fractional viability (2uM) was 1.06 and the fractional viability (10uM) is 0.628.

For the compound `C=CC(C)(C)c1cc(/C=C/C(=O)c2ccc(O)cc2)c(OC)cc1O` [Licochalcone A], the fractional viability worked out at 0.923 (2uM) and 0.906 (10uM).

Consider `Cc1ncc(Cl)cc1NCc1ccc(C(=O)N[C@@H](CC2CCCC2)C(=O)NC2CC2)s1`, for which the fractional viability came out at 0.99 (2uM) and 0.922 (10uM).

With `CN1CCN(c2c(F)cc3c(=O)c(C(=O)O)cn4c3c2OCN4C)CC1` [Marbofloxacin], the fractional viability turned out to be 1.16 (2uM) and 0.908 (10uM).
